This is an account of results in PubChem BioAssay AID488969 (Vanderbilt High Throughput Screening Facility, 2010).

Structures are written as SMILES. In all, about 110,000 compounds were measured (“z-score”: median about -0.1, highest 2% from about 2 on). The list shows a part of the results.

The experiment addresses Metabotropic glutamate receptor 8 (Rattus norvegicus) (UniProt P70579). As to the kind of experiment: rat mGluR8 modulators via GIRK flux, primary screen, cell-based, thallium flux, HTS (AID 488969). To be noted: HEK293 rat mGluR8, GIRK (G protein-gated inwardly rectifying potassium channel) thallium flux, FluoZin2; at 10 µM; stronger effect = higher value; submaximal glutamate (EC20) added with thallium.
UniProt P70579, sequence (P70579 whole entry, looked up): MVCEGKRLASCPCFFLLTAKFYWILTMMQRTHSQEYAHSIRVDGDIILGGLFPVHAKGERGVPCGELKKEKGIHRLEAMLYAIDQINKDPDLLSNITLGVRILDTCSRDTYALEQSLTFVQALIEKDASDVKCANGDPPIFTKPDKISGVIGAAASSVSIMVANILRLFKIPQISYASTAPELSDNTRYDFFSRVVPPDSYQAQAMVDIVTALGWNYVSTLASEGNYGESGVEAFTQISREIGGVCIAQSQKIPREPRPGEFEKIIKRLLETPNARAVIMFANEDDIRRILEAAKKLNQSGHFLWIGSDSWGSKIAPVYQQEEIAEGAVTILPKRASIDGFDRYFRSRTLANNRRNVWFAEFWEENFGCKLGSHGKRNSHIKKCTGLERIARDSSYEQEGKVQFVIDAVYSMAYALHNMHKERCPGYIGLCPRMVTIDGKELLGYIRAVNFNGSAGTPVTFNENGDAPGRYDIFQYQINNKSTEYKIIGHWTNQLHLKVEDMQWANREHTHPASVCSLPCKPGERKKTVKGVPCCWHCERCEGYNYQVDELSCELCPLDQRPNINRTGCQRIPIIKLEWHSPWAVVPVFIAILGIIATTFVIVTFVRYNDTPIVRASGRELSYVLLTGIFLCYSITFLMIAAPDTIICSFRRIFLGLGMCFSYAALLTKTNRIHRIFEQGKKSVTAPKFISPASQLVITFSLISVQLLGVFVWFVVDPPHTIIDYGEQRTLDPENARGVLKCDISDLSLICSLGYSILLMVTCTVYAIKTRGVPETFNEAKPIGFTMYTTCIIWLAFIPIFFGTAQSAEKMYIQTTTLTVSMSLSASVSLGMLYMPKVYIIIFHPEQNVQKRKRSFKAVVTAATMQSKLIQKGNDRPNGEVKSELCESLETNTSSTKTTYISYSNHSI
For `CCN(CC)S(=O)(=O)c1cccc(-c2nnc(SCc3nc4ccccc4s3)o2)c1`, the z-score came out at 0.16.
Compound `Cc1ccc(-c2nnc(N3CCN(C(=O)Cn4c(=O)n(C)c5ccccc54)CC3)c3ccccc23)cc1` came in with a z-score of 1.84.
`Cc1ccsc1CNn1cnnc1SCc1ccccc1F` showed a z-score of 1.15.
Then `CCCCc1ccc(-c2c(C#N)c(N)nc3c2CCCC3)s1`, with -0.0652; and `CSc1ccccc1NC(=O)CN(c1ccccc1Br)S(C)(=O)=O`, with 2.04.
In turn, `CN1CCCN(C(=O)c2cc(=O)[nH]c3ccccc23)c2nc3ccccc3nc21` registered a z-score of -0.15.
As for `O=C(O)c1c[nH]c2ccc(S(=O)(=O)N3CCOCC3)cc12`, the figure is -0.375.
Compound `CC(C)OP(=O)(OC(C)C)C(Nc1ccccc1)c1ccccc1C(F)(F)F` (stereo unspecified) had a z-score of -0.309.
As for `Cc1cc(C)c(S(=O)(=O)N(CC(=O)O)CC(=O)O)c(C)c1`, the figure is 0.0533.
In the case of `Cc1ccccc1OCCSc1nnc(C)n1-c1ccccc1`, the z-score is -0.0941.
Then `N#Cc1cc(N)ccc1Sc1ccc(Cl)cc1`, with 0.503; and `CCC(C)[C@H](NC(=O)OC(C)(C)C)C(=O)N/N=C/c1ccc2nccnc2c1` (stereo partly specified), with 0.121; and `COc1ccccc1OC1OC2COC(c3ccco3)OC2C(O)C1NC(C)=O` (stereo unspecified), with 1.75.
As for `COc1cc(-c2nc3ccc4ccccc4c3c3c2CCC3)cc(OC)c1O`, the figure is -0.255; as for `Cc1ccc(NC(=O)CSc2n[nH]c(=O)n2C2CC2)cc1S(=O)(=O)N1CCOCC1`, -0.201; as for `Cc1ccc(/C=N/n2c(-c3ccco3)n[nH]c2=S)s1`, 0.259.
As for `CN(C)c1ccc(C2N3CC4(C)CN2CC(C)(C3)C4O)cc1` (stereo unspecified), the figure is -0.147.
Turning to `COc1ccc(NC(=S)N2CCN(C(=O)C3CCCO3)CC2)c(OC)c1` (stereo unspecified), the z-score was -0.191.
Then `O=C1C2C3C=CC(C3)C2C(=O)N1CCc1ccccc1` (stereo unspecified), with -0.187; and `COc1ccc(NC(=O)Nc2cccc([N+](=O)[O-])c2)cc1Cl`, with 0.026; and `Cn1c(-c2ccccc2)cccc1=O`, with 0.333.
As for `OCc1ccccc1CNCc1ccccc1`, the figure is 0.0112.
Take `O=C(c1cc(-c2ccncc2)nc2ccccc12)N1CCN(c2ccccn2)CC1`: the z-score is -0.526.
Then `COc1cccc(CN(C(=O)Cc2c[nH]c3ccccc23)C(C(=O)NC2CCCCC2)c2cccs2)c1` (stereo unspecified), with 0.207; and `COc1cc(NC(=O)Cc2ccc([N+](=O)[O-])cc2)c(C(=O)O)cc1OC`, with -0.305.
As for `O=C(NC1CCCCC1)C1(c2ccccc2)CC1(Cl)Cl` (stereo unspecified), the figure is -0.316.
The compound `CCOC(=O)C1CCN(c2nc(-c3ccccc3)nc3c2oc2ccccc23)CC1` had a z-score of -0.609.
As for `O=C(c1ccc(Cl)c([N+](=O)[O-])c1)N(Cc1ccccc1)C1CCS(=O)(=O)C1` (stereo unspecified), the figure is 2.
As for `COc1cc(S(=O)(=O)NCc2ccccc2)ccc1F`, the figure is 0.606; as for `Cc1cc2c(c(=O)n1CCN(C)C)C(c1ccncc1)C(C#N)=C(N)O2` (stereo unspecified), -0.0982.
Take `CCSc1ncc(Cl)c(C(=O)Nc2sc3c(c2C(=O)NCc2cccnc2)CCCC3)n1`: the z-score was -0.0832.
As for `Nc1ccc(S(=O)(=O)NNC(=O)C(=O)NNc2ccccn2)cc1`, the figure is -0.11; as for `N#Cc1ccc(-c2ccco2)nc1SCC(=O)c1ccc(Cl)cc1`, 0.533.
Turning to `Cc1ccc(OCC(=O)O)c(-n2nc3ccccc3n2)c1`, the z-score is 0.024.
Then `COc1ccc(-c2nc3ccccc3o2)cc1NC(=O)c1ccc(Br)o1`, with -0.127; and `CCc1nc(SCC(=O)Nc2ccc(C(=O)O)cc2)n[nH]1`, with 1.07; and `O=C(CSc1nc2ccccc2c(=O)n1-c1ccc(F)cc1)NCc1ccco1`, with 0.000137.
Then `Cc1cc(C(=O)NCCC(c2ccccc2)c2ccccc2)c(C)o1`, with -0.167; and `Cc1nn(C)cc1/C=N/O`, with 0.0629.
Compound `Fc1ccc(-c2n[nH]c(=S)n2/N=C/c2c[nH]c3ccccc23)cc1` registered a z-score of -0.0688.
As for `CCOC(=O)NN1C(=O)c2ccccc2NC1c1ccc(N(C)C)cc1` (stereo unspecified), the figure is -0.142.
As for `Cc1c(C(=O)Nc2ccc(OCc3ccccc3)cc2)cccc1[N+](=O)[O-]`, the figure is 0.00171; as for `COc1ccc(CC(=O)c2ccc(O)cc2O)cc1OC`, -1.61.
Then `CCc1c(C)c2cc(Cl)c(O)c(CN(CC)CC)c2oc1=O`, with -0.0735; and `O=C(CSc1nnc(-c2ccccc2)o1)Nc1ccccc1F`, with -0.28.
On to `Cc1ccc(CN2CC(C(=O)Nc3ccc(S(=O)(=O)Nc4cc(C)nc(C)n4)cc3)CC2=O)cc1` (stereo unspecified), for which the z-score came to 0.368.
As for `C=CCn1c(/N=C/c2ccc3c(c2)OCO3)nc2ccccc21`, the figure is -0.0867; as for `O=C(CS(=O)(=O)c1ccc(Cl)c(Cl)c1)Nc1ccccc1Cl`, 0.0671; as for `CC(C)COc1ccc(-c2nn(-c3ccccc3)cc2C(=O)Nc2nccs2)cc1`, 0.0447.
As for `Cc1cc(C)nc(SCc2nnc(SCC(=O)Nc3ncc(C)s3)n2Cc2ccco2)n1`, the figure is -0.496.
Then `CC(C)Cc1nc2sc3c(=O)n(N)cnc3c2c2c1COC(C)(C)C2`, with -0.375; and `Cc1ccc(/C=C/C(=O)c2ccc(C)cc2)cc1`, with 0.025.
As for `CN(C)c1ccc(/C=C2/SC(=O)N(CCN=C3NS(=O)(=O)c4ccccc43)C2=O)cc1`, the z-score was -0.133.
As for `COc1ccc(C(=O)COC(=O)C2CCCN2C(=O)C23CC4CC(CC(C4)C2)C3)cc1` (stereo unspecified), the figure is 0.0625; as for `CN(C)S(=O)(=O)N1CCN(S(=O)(=O)c2ccc(F)cc2)CC1`, -0.569.
Then `O=[N+]([O-])c1ccccc1OCCCN1CCOCC1`, with -0.0205.
Then `Clc1ccc(Cn2ncc3c(NCc4cccnc4)ncnc32)cc1`, with -0.407; and `Cc1ccc(-c2cn3c(=S)[nH]nc3s2)cc1`, with -0.312; and `CC(C)(C)C(=O)Nc1ccccc1C(=O)Nc1ccncc1`, with 0.0756.
Regarding `Cc1cc(C)cc(-n2cnc3cc(C(=O)O)ccc32)c1`, the z-score was -0.392.
Then `CCCCCCCCC(=O)N/N=C/c1cccc(Br)c1`, with -0.128.
As for `O=C1CC(N2CCCc3ccccc32)C(=O)N1c1ccccc1Cl` (stereo unspecified), the figure is -0.446; as for `COCCCNC(=O)CSC1=Nc2ccccc2C2=NC(Cc3c[nH]c4ccccc34)C(=O)N12` (stereo unspecified), 0.768.
Then `Cc1ccc(Cn2nnnc2CN2CCC(O)(c3ccc(F)cc3)CC2)cc1`, with 1.6; and `N#Cc1c(N2CCN(C(=O)c3ccccc3Cl)CC2)nc(-c2ccccc2)c2c1CCCC2`, with -0.453.
On to `CC(C)C(c1nnnn1Cc1ccc(F)cc1)N1CCSCC1` (stereo unspecified), for which the z-score was found to be 0.351.
`COc1cccc(NC(=O)c2nn(C)cc2Br)c1` came in with a z-score of 0.333.
Compound `CCOC(=O)c1ccc(NC(=O)Cn2nnc(-c3ccccc3F)n2)cc1` showed a z-score of -0.121.
As for `CCOC(=O)C1C(=O)NC(N2CCCCC2)=NC1c1ccco1` (stereo unspecified), the figure is -0.274; as for `Cn1nc([N+](=O)[O-])nc1Oc1ccccc1N`, -0.0598; as for `O=C(O)CP(=O)(c1ccccc1)c1ccccc1`, -0.183.
Compound `COC(=O)c1c(NC(=O)c2nc3ccccc3s2)sc2c1CCN(C(C)=O)C2` yielded a z-score of -0.909.
Then `Cc1nc2nc(-c3ccco3)[nH]n2c(=O)c1Cc1ccccc1`, with -1.16; and `COC(=O)COc1ccc(S(=O)(=O)N2CCOCC2)cc1C`, with 0.482; and `O=C(NC1CCCC1)c1cccc(S(=O)(=O)N2CCCCC2)c1`, with 0.0926.
Then `Cc1ccc(C2=NN(CC(=O)NCc3ccccn3)C(=O)CC2)cc1`, with 0.995.
Then `COc1cc(Cl)cc(C2NC(=O)NC(C)=C2C(C)=O)c1OCC(=O)O` (stereo unspecified), with -0.405; and `COc1ccccc1NC(=O)CCc1nc(-c2cccs2)no1`, with -0.452.
Take `C(#CCN1CCOCC1)COC(c1ccccc1)c1ccccc1`: the z-score is -0.00302.
Then `O=C(c1ccccc1)N1CCN(C2CCCCC2)CC1`, with 0.248.
Then `O=C1CC(N(C(=O)c2ccco2)c2cccc(Cl)c2)C(=O)N1c1cccc(Cl)c1` (stereo unspecified), with -0.266; and `CCCCN(C)C(=O)c1cn(CC)c2nc(C)ccc2c1=O`, with -0.12.
As for `CCn1c2ccccc2c2cc(NC(=O)COC(=O)c3cc(OC)c(OC)cc3OC)ccc21`, the figure is 0.0126; as for `COc1cc(OC)c(-c2nn3c(-c4ccco4)nnc3s2)cc1OC`, -1.13; as for `COc1ccc(Nc2nc(-c3cccs3)nc3ccccc23)c(OC)c1`, -0.0367.
Consider `COc1cc(O)oc1C=Nc1ccc(Cl)cc1`, for which the z-score was -0.289.
As for `CCCCc1ccc(NC(=S)Nc2cccnc2)cc1`, the figure is 2.66.
Consider `Cc1nn(Cc2ccccc2)c(C)c1NC(=O)c1noc2c1CCc1ccccc1-2`, for which the z-score was 0.79.
As to `COc1ccc(C(C)=O)cc1COC(=O)CNC(=O)c1ccccc1F`, the z-score is -0.19.
`COc1ccc(C2c3c(n[nH]c3C)CC(C)(O)C2C(C)=O)cc1OC` (stereo unspecified) gave a z-score of -0.177.
As for `COc1ccc2nc(N3CCCCC3)c(C#N)cc2c1`, the figure is -0.776.
The compound `Cn1c(CN2CCCC2)nc2cc(NS(=O)(=O)c3ccccc3)ccc21` registered a z-score of 0.133.
`O=C(NCCO)c1c(O)c2cccc3c2n(c1=O)CC3` returned a z-score of 0.564.
As for `O=C(CCn1c(=O)oc2ccccc21)N(Cc1ccccc1)c1ccccn1`, the figure is 0.207; as for `COc1ccc(/C=C/C(=O)c2c(C)nc3ccccn23)cc1`, -0.28.
As for `Cc1cc(C(=O)N/N=C2\CC(=O)CC(C)(C)C2)c(C)n1-c1ccccc1`, the figure is -0.102; as for `CC1CCC(C(C)C)C(OC(=O)C2=C3c4ccccc4S(=O)(=O)N3CC2)C1` (stereo unspecified), -0.046.
Then `Cc1ccc2nc(/C(C#N)=C\c3cc(C)n(-c4cccc([N+](=O)[O-])c4)c3C)[nH]c2c1`, with -0.342.
`CC1(C)CC(=O)c2cc(C(=O)NCc3ccco3)c(=O)n(-c3ccc(Cl)cc3)c2C1` came in with a z-score of -0.635.
Then `Cc1[nH]c(=O)[nH]c(=O)c1S(=O)(=O)N1c2ccc(F)cc2CCC1C` (stereo unspecified), with 0.0752.
As for `O=C1OCC(CO)(CO)N=C1NNc1ccc(Cl)c(Cl)c1`, the figure is 0.458; as for `Cc1cccc(Cn2c(Sc3nc(C)cs3)nc3c2c(=O)[nH]c(=O)n3C)c1`, -1.25; as for `O=C1C2C(c3ccccc3)=NN(c3ccccc3)C2C(=O)N1c1ccccc1` (stereo unspecified), -0.169.
As for `c1ccc(-c2n[nH]c(-c3ccccn3)n2)cc1`, the figure is -0.134; as for `CCOCC(=O)Nc1cccc(C(=O)OCC)c1`, -0.217.
`CC1(C)CC(=O)C=C(NC2CCCCCCC2)C1` displayed a z-score of -0.289.
On to `Nc1ccccc1-c1nnc(-c2ccc(-c3ccccc3)cc2)o1`, for which the z-score turned out to be 0.084.
With `O=C(NCc1cccnc1)NC1(C(F)(F)F)Oc2ccccc2O1`, the z-score is -0.523.
As to `O=c1c2ccccc2nc(SCc2ccc([N+](=O)[O-])cc2)n1-c1ccccc1`, the z-score was -0.334.
With `COc1ccccc1-c1cnnc(N/N=C/c2ccc(-c3cccc(Br)c3)o2)n1`, the z-score was 0.0172.
In the case of `COc1ccc(-c2c(O)c(C#N)c(-c3ccccc3)n(-c3ccc(OC)cc3)c2=O)cc1`, the z-score is -0.447.
